This is an account of results in the supplement of paper PMC10338343.

± gives the standard deviation. The entries are a selection whose mix differs from that of the whole data set.

This test deals with MIWI (PIWIL1) piRISC loaded with piRNA #1 (30 nt). Kind of test: pre-steady-state target cleavage rate (min^-1); MIWI and MILI are mouse PIWI proteins and EfPiwi is from a freshwater sponge; tags in brackets are library labels; higher = faster piRNA-guided slicing of the target. To be noted: guide: piRNA #1 5'p-UGAGGUAGUAGGUUGUAUAGUAUCCAGAGG; auxiliary factor: 500 nM mouse GTSF1. An outline of the steps:
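The pre-steady-state cleavage rate was obtained by Cleave-'n-Seq with a burst-and-steady-state fit. A transcribed, DNA-blocked target RNA library (0.1 nM) was mixed with 1 nM active affinity-purified piRISC carrying one synthetic guide, with or without 500 nM GTSF1 partner protein, in HEPES–potassium acetate buffer at 33 °C for 0–8 or 0–960 min. Uncleaved targets were sequenced and normalised to depth and to weakly complementary targets, with three trials pooled and k3 capped at 0.0001 min^-1.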
Consider CCUCUGGAUAGUAUAGAACCUACUACCUCA, for which the “pre-steady-state target cleavage rate” value worked out at 0.37 ± 0.048.

As for GGAGUGGAUACUAUACAACCUUCUACCUCA, the “pre-steady-state target cleavage rate” value came out at 0.656 ± 0.029. Consider GGAGAGCAUACUAUACAACCUAGUACCUCA, for which the “pre-steady-state target cleavage rate” value came to 0.331 ± 0.03.

For GGAGUGGAUACUAUAGAUCCUACUACCUCA, the “pre-steady-state target cleavage rate” value stood at 1.06 ± 0.066. To GCUCUGGAUACUAUUCAACCUACUUCCUCA belongs 0.621 ± 0.043; to GGAGACCUAUGUAUACAACUUACUACCUCA, 0.0216 ± 0.0032; to GGAGAGGAUACUAAUGAACCUACUACCUCA, 0.359 ± 0.047. For GGAGAGGAUACUAUUCAACCUACUAGCUCA, the “pre-steady-state target cleavage rate” value worked out at 0.246 ± 0.03. To GGUCUGGAUACUAUACAACCAUCUACCUCA belongs 0.0294 ± 0.0057; to GGAGACCAUUCUAUACAACCAACUACCUCA, 0.0328 ± 0.0046. The result for GGAGAGGAUACUAUACAACCUACUACGACA reads 0.14 ± 0.028; that for GGUCUGGAUACUAUACAACGUACUACCUCA, 1.07 ± 0.062. In the case of CCUCUGGAUACUAUACAACCCACUACCUCA, the “pre-steady-state target cleavage rate” value was found to be 0.934 ± 0.041. The result for CCUCUGGAUACUAAACAUCCUACUACCUCA reads 1.52 ± 0.098. The result for GCUCUGGAUACUAUACAACCUACUACACUCA reads 0.988 ± 0.095; that for GCACUGGAUACUAUACAACCUACUACGUCA, 0.786 ± 0.057.
